The whole screen tested about 310,000 compounds, of which about 2,200 (0.71%) showed an effect of 50% or more. The effect is printed as a negative number. The list shows a part of the results.
Target: human ether-à-go-go-related gene (hERG) potassium channel (human, UniProt Q12809)
Experiment: primary screen, population patch clamp on CHO cells stably expressing hERG

Chain of human ether-à-go-go-related gene (hERG) potassium channel (Q12809 whole entry, looked up): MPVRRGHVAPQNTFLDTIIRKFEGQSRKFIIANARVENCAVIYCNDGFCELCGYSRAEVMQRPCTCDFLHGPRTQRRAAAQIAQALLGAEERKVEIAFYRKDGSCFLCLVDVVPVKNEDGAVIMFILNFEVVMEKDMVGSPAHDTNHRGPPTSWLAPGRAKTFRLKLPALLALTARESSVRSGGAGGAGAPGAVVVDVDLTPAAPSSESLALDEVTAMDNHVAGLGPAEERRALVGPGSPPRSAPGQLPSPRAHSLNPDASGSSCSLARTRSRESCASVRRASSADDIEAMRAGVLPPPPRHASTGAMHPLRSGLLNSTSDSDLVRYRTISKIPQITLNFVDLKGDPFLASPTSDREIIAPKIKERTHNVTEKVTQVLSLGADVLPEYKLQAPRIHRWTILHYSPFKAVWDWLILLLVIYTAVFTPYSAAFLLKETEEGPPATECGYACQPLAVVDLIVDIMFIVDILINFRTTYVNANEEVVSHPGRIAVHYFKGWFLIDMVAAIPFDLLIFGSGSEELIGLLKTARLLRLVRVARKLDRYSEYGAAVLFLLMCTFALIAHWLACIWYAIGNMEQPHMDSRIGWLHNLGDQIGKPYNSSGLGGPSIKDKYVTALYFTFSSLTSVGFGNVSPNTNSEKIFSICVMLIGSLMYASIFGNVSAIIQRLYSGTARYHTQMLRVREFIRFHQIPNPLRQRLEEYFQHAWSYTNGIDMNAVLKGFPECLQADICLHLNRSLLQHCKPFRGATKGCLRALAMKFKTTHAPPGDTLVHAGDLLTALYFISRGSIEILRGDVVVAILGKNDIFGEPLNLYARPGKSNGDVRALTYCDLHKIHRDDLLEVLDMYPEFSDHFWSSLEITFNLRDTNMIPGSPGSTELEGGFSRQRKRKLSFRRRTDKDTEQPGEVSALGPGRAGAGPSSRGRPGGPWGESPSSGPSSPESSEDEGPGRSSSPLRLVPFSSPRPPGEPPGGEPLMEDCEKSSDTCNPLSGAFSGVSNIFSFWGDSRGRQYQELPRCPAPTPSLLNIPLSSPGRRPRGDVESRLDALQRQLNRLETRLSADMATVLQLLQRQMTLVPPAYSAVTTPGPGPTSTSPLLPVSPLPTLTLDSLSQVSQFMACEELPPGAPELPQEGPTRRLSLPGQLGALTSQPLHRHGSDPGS

| Structure (SMILES) | hERG current change (%, negative = inhibition) at 1uM [%] |
| --- | --- |
| COc1ccc(N2CCN(Cc3cc(=O)oc4ccc(Cl)cc34)CC2)cc1 | 10.3 |
| Cc1cc(C)c(C#N)c(Oc2ccccc2Br)n1 | 17.9 |
| Cc1nn(CC(=O)NNC(=O)c2ccccc2F)c([N+](=O)[O-])c1Br | 8.13 |
| COc1ccc(C(=O)CCC(=O)N2CCN(c3ccccc3)CC2)cc1 | 1.21 |
| CC(C)Cn1c(=O)c(C(=O)Nc2ccccc2S(N)(=O)=O)c(O)c2ccccc21 | -3.63 |
| CSc1cccc(CNC(=O)C2CCC(=O)N(CCc3ccccn3)C2)c1 (centres unmarked) | 15.2 |
| CC(=O)c1ccc(-n2cc(-c3ccc(C(C)(C)C)cc3)[n+]3c2SCCC3)cc1.[Br-] | -4.85 |
| CCc1noc(C)c1C(=O)OC(C)C(=O)Nc1ccc(Cl)cn1 (centres unmarked) | 3.15 |
| COc1ccc(CN2C(=O)[C@H]3Cc4c([nH]c5ccccc45)C(C)(C)N3C2=O)cc1 | 15.9 |
| O=S(=O)(c1ccc(F)cc1)c1nc(-c2ccccc2)oc1N1CCOCC1 | 3.6 |
| Cc1ccccc1C(=O)NC(=S)NCCc1ccccc1 | 3.4 |
| CC(C)(C)c1ccc(C(=O)Nc2ccc(CC(=O)O)cc2)o1 | -8.3 |
| CNC(=O)/C(C#N)=C/c1c(N2CCN(c3ccccc3)CC2)nc2c(C)cccn2c1=O | 1.76 |
| Cc1onc(-c2ccccc2)c1C(=O)NCc1ccco1 | 7.69 |
| O=c1c2ccccc2nc(-c2ccccc2)n1-c1ccccn1 | 13.4 |
| O=c1oc2cc(O)ccc2c2ccccc12 | 12.6 |
| COc1ccccc1NS(=O)(=O)c1cc(NC(=O)c2ccncc2)ccc1N1CCOCC1 | 6.08 |
| CCOC(=O)c1c(NC(=O)Cc2ccccc2)sc2c1CCN(CC)C2.Cl | -18.3 |
| CCCCN(C)CCNC(=O)Cn1c(=O)sc2ccccc21 | 9.2 |
| O=C(NCc1ccncc1)C(=O)N/N=C/c1cccnc1 | 17.3 |
| O=C1c2oc3ccc(Cl)cc3c(=O)c2C(c2ccco2)N1CCN1CCOCC1 (centres unmarked) | 10.3 |
| CC(=O)OCC(=O)[C@@]1(O)CC[C@H]2[C@@H]3CCC4=CC(=O)CC[C@]4(C)[C@H]3C(=O)C[C@@]21C | 2.45 |
| O=C(Cn1ccc([N+](=O)[O-])n1)Nc1nc2ccccc2s1 | -11.3 |

| Structure (SMILES) | hERG current change (%, negative = inhibition) at 1uM [%] |
| --- | --- |
| CC(C)c1nc(SCC(=O)c2ccc(F)cc2)c2ccccc2n1 | 12.4 |
| Br.CCCc1cc(-c2nc(-c3ccc(Cl)cc3)cs2)ccn1 | 4 |
| O=C(O)CCc1ncc(C(F)(F)F)cc1Cl | 14.3 |
| COC(=O)c1cc(-c2ccccc2)n[nH]1 | 10.5 |
| Cl.NC(N)=NC(N)=Nc1ccc(SC(F)(F)F)cc1 | 9.66 |
| Cc1cccc(N/C(N)=N/c2nc(C)cc(=O)[nH]2)c1 | 15.1 |
| COc1ccc(-c2cnc(N)nc2-c2ccc(OCc3ccccc3)cc2O)cc1 | 8.07 |
| Cc1ccccc1NC(=O)CCCNC(=O)c1ccc(Cl)cc1 | 12.6 |
| COc1ccccc1OCC(=O)Nc1ccc(N2CCCCC2)cc1 | -6.82 |
| O=C(NCc1ccccc1Cl)C1CCC(=O)N1Cc1ccc(F)cc1 (centres unmarked) | 17.4 |
| O=C(c1ccc([N+](=O)[O-])cc1)N1CCN(c2ncc(Br)cn2)CC1 | -11.3 |
| Cc1ccc(-n2ncc3c2CC(C)(C)CC3NC(=O)CN2CCCC2=O)cc1 (centres unmarked) | 5 |
| CCOC(=O)CC(=O)CSc1nc2nc(C)cc(C)n2n1 | 7.68 |
| O=C1C(C2=NC(C(=O)O)C3C(=O)N(c4ccc(Cl)cc4)C(=O)C23)=C(O)c2ccccc21 (centres unmarked) | 0.931 |
| Cc1ccc(N2CC(C(=O)OCC(=O)C(C)(C)C)CC2=O)cc1C (centres unmarked) | 2.59 |
| CCNC(=S)N/N=C(\C)c1ccc2ccccc2c1OC(F)F | -3.11 |
| Cc1ccc(C(=O)NCc2ccco2)cc1[N+](=O)[O-] | 0.904 |
| CSCCC(NS(=O)(=O)c1cccc(C(F)(F)F)c1)C(=O)N(C)CCOc1ccc(Cl)cc1 (centres unmarked) | 14.2 |
| C[C@H]1CC[C@]2(O[C@@H](CCO)C[C@@H](O)[C@@H]2O)O1 | 11.1 |
| Cc1ccc(-c2nn(C)c(=O)c3ccccc23)cc1CNC(=O)c1ccco1 | 2.32 |
| COC(=O)Nc1nc2ccc(-c3n[nH]c(=O)c4ccccc34)cc2[nH]1 | 1.25 |
| O=C1c2ccccc2S(=O)(=O)c2cc(N3CCC(C(=O)N4CCCCC4)CC3)ccc21 | 15.8 |
| COc1cccc2c1OCC(CN1CCN(Cc3ccccc3)C(CCO)C1)=C2 (centres unmarked) | -4.17 |

| Structure (SMILES) | hERG current change (%, negative = inhibition) at 1uM [%] |
| --- | --- |
| COc1cc(/C=N/Nc2nc(Nc3ccc(C)cc3)nc(-n3nc(C)cc3C)n2)cc(OC)c1OC | 6.26 |
| CCc1nc(N2CCCCC2)c2oc3ccccc3c2n1.Cl | 18.3 |
| Fc1ccc(-c2nc3n(n2)Cc2ccccc2-3)cc1 | 9.62 |
| O=C(Nc1ccc(F)cc1)c1ccc2[nH]c(=O)c(=O)[nH]c2c1 | 14 |
| Cc1ccc(S(=O)(=O)N2CCCCC2)cc1NC(=O)CCN1C(=O)C2CC=CCC2C1=O (centres unmarked) | 2.31 |
| COc1ccc(NS(=O)(=O)c2cc(NC(=O)C3CC3)ccc2N2CCOCC2)cc1 | -1.57 |
| Cc1cc(C)cc(OCC(=O)N/N=C\c2cn(C)nc2C)c1 | 4.73 |
| COc1ccccc1CNC(=O)c1ccccc1OCc1ccc(F)cc1 | 11.5 |
| CCN(CC)CCN1C2=C(C(=O)CC(C)(C)C2)C(c2cccc(F)c2)C2=C1CC(C)(C)CC2=O | 12.2 |
| CCOc1ccccc1NC(=O)C(CC(C)C)NC(=O)C1CCCCC1 (centres unmarked) | -13.4 |
| CN(C)CC(=O)Nc1nc(-c2ccccc2)cs1 | 4.14 |
| CC#CCC(CC#CC)c1nc2ccccc2c(=O)n1N | 11.6 |
| COc1ccc(-n2ncc3c2CC(C)(C)CC3NC(=O)c2ccc(OC)o2)cc1 (centres unmarked) | -9.03 |
| CSc1nccn1C(=O)c1ccccc1[N+](=O)[O-] | 7.11 |
| CCOC(=O)N1CCN(C(=O)CNS(=O)(=O)c2c(C)cc(C)cc2C)CC1 | 14.2 |
| CCOc1cc(-c2nc3n(c(=O)c2C#N)CCS3)ccc1O | 12.5 |
| N/C(=N\OS(=O)(=O)c1ccc(Br)cc1)c1ccncc1 | 4.43 |
| CCC(=O)N1CCN=C1SCc1ccccc1 | 13 |
| COc1ccc2c(c1)C(C)=CC(C)(C)N2S(=O)(=O)c1ccc(Br)cc1 | 15.4 |
| Cc1noc(C)c1S(=O)(=O)N(CC(=O)NCc1ccccc1)c1ccc(C(C)C)cc1 | 16 |
| Cc1cccc(OCC(=O)NNC(=O)CSc2ncc(C#N)c(N)n2)c1 | 8.43 |
| O=C(C1=C[C@@H](C2CC2)C[C@@H](OCCCCO)O1)N1CCN(Cc2ccccc2)CC1 | 9 |
| CCOC(=O)CSc1nc2sc3c(c2c(=O)n1-c1ccccc1)CCN(C)C3 | 24.6 |

| Structure (SMILES) | hERG current change (%, negative = inhibition) at 1uM [%] |
| --- | --- |
| CC(NS(C)(=O)=O)C(c1cccs1)N1CCN(c2ccccc2F)CC1 (centres unmarked) | 12.7 |
| Br.CCOc1ccc(N=c2scc(-c3ccccc3)n2CCO)cc1 | 9.03 |
| COc1cc(SC)ccc1C(=O)Nc1ncc(C)s1 | 1.4 |
| COc1cccc(/C=N/Nc2ncnc(N)c2[N+](=O)[O-])c1OC | 5.07 |
| O=C(CCc1nnc(CCCCc2ccccc2)o1)NCCCc1cccnc1 | 12.1 |
| O=C(CCc1nc(-c2ccccc2)no1)NCc1cccnc1 | -4.92 |
| COc1cc(C)ccc1NC(=O)Cc1csc(NC(=O)Nc2ccccc2OC)n1 | 7.89 |
| Cc1ccc(N=C2NC(=O)/C(=C/c3cccn3C)S2)cc1C | 10.3 |
| O=C(CN1CCN(Cc2ccc(Cl)cc2)CC1)N/N=C/c1cccc(F)c1 | -48.8 |
| Cn1c(CNc2ccc(Cl)cc2)nnc1SCC#N | 1.61 |
| O=c1[nH]c(COc2ccc(Cl)cc2Cl)nc2ccccc12 | 16.3 |
| COCCN(C(=O)CNC(=O)c1ccco1)C(C(=O)NC1CCCCC1)c1cccc(OC)c1 (centres unmarked) | 4.56 |
| O=C(Nc1ccc(Cl)cc1)Nc1ccc(Cl)c(Cl)c1 | 1.25 |
| COc1cccc(CNC(=O)COC(=O)CCCNC(=O)c2ccc(Cl)cc2)c1 | 14.8 |
| CCOC(=O)C[n+]1ccc2c([nH]c3ccccc32)c1C.[Br-] | 8.85 |
| O=C(COC(=O)c1n[nH]c(=O)c2ccccc12)NCc1ccccc1 | 6.79 |
| CC(C)NC(=O)C1CCN(C2CCN(CC3CC=CCC3)CC2)CC1 (centres unmarked) | 5.3 |
| c1cncc(CNc2ccc3c(c2)OCO3)c1 | -0.287 |
| Cc1coc2c(C)c3oc(=O)c(CCC(=O)NCCCn4ccnc4)c(C)c3cc12 | -13.8 |
| O=C(c1ccoc1)N1CCC2(CC1)Oc1ccc(F)cc1C(=O)C21CC(c2ccccc2)=NO1 (centres unmarked) | 9.38 |
